# Results published in publication PMC6919601, “Identification of Plasmodium dipeptidyl aminopeptidase allosteric inhibitors by high throughput screening” (PLoS ONE, 2019).
# Among all 110,000 compounds or so, about 230 (0.21%) showed an effect of 50% or more. Some of the results follow.
# Target: DPAP1 (Plasmodium falciparum, UniProt Q8IIJ9)
# Assay: primary screen, percent inhibition; read by cleavage of a fluorogenic dipeptide substrate; higher = more effect of the substance
# Set-up: species or system P. falciparum D10 trophozoite lysates; single well
# 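Note: 30 min substrate incubation versus DMSO and 10 µM JCP410 controls.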
# DPAP1, sequence (Q8IIJ9 whole entry, looked up): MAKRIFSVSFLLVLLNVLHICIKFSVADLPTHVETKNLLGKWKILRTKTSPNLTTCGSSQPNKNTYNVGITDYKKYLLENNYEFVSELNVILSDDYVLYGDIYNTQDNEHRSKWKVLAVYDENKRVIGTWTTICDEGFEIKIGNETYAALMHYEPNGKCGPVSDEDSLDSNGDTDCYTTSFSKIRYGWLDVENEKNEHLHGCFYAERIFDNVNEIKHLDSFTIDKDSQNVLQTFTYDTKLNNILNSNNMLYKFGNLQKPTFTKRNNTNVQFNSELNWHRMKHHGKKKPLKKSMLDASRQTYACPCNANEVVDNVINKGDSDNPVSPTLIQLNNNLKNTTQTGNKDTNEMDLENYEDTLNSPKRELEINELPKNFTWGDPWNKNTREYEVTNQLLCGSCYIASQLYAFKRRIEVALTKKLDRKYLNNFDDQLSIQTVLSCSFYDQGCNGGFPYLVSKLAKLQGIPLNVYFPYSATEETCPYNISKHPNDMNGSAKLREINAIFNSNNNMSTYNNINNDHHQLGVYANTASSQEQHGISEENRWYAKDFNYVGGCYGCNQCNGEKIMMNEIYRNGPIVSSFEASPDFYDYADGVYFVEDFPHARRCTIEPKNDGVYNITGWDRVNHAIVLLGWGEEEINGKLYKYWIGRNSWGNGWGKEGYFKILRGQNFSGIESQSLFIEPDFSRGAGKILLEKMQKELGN
row,SMILES,% Inhibition @ 10 uM [%]
1,CC(C)CN1C(=O)c2ccccc2C(C(=O)N2CCCC2)C1c1cccs1 (stereo not shown),-1.11
2,O=C(OCn1cncn1)c1ccc(Cl)cc1Cl,1.13
3,Cc1ccc(S(=O)(=O)n2cc(CO)c3ccccc32)cc1,-1.22
4,CC1=C(C(=O)Nc2ccccc2C)C(c2ccccc2)n2c(s/c(=C/c3cn(C)nc3C)c2=O)=N1 (stereo not shown),0.431
5,O=C(Cn1ncc2c(=O)oc3ccccc3c21)NCCCN1CCCC1=O,2.39
6,O=C1CSc2cc3c(cc2N1)OCC(=O)N3Cc1ccc(Cl)cc1,5.43
7,Cc1ccc(OCC(=O)NC23CC4CC(CC(C4)C2)C3)c(Br)c1,-1.82
8,COc1cc(CN2CCN(C(=O)CC(C)C)CC2)cc(OC)c1,0.324
9,COc1c(Cl)cc(-c2nc3cc(N)ccc3o2)cc1Cl,13.2
10,CC(C)C[C@H](NC(=O)c1ccc(OCc2ccccc2)cc1)C(=O)NCC#N,17
11,CC(NC(=O)CSc1nnc(-c2ccco2)n1-c1ccccc1)c1ccccc1 (stereo not shown),1.76
12,Cc1cc(C(F)(F)F)nn1CC(=O)Nc1sc2c(c1C#N)CCC(C(C)(C)C)C2 (stereo not shown),3.64
13,Cc1cc(C)n(CC(O)Cn2c(C)c(C)c3ccccc32)n1 (stereo not shown),11.8
14,O=C(CCc1nnc2n(CCc3ccccc3)c(=O)c3ccccc3n12)NCc1ccc2c(c1)OCO2,-0.692
15,O=C(NCCCN1CCOCC1)C1CCCN(S(=O)(=O)N2CCC3(CC2)OCCO3)C1 (stereo not shown),0.0525
16,c1cc2c(cc1NC1CCCCC1)OCO2,-7.06
17,O=C(Nc1ccc(F)c(F)c1)c1ccc(Cl)cc1,-3.35
18,COc1ccccc1C(=O)N/C(=C\c1cn(S(=O)(=O)N(C)C)c2ccccc12)C(=O)NCCO,4.8
19,CCOc1cccc2c1OC(c1cccc(Cl)c1)N1N=C(c3cccnc3)CC21 (stereo not shown),3.47
20,OC1(c2ccc(Br)cc2)CCN(CCCc2ccccc2)CC1,-5.35
21,Cc1ccc(-c2nn3c(C)nnc3c3ccccc23)cc1S(=O)(=O)NCc1cccnc1,-0.222
22,CC(C)N(Cc1ccccc1)C(=O)c1ccc([N+](=O)[O-])cc1Cl,3.47

row,SMILES,% Inhibition @ 10 uM [%]
1,COc1ccc(CNC(=O)Cn2ccc3cc(S(=O)(=O)N4CCCC4)ccc32)cc1,-4.85
2,Cc1cccc(-c2nc(CS(=O)CC(=O)NC(C)c3ccccc3)c(C)o2)c1 (stereo not shown),3.99
3,COc1ccc2nnc(-c3ccccc3)n2n1,1.4
4,Cc1ccc(O)c(C(CC(=O)NCc2ccco2)c2ccccc2)c1 (stereo not shown),-4.69
5,COc1cc(C)c(CNC23CC4CC(CC(C4)C2)C3)cc1C,-5.59
6,COc1ccc(OC)c([N+]2=C3CCCCCN3C(O)(c3ccc(C)cc3)C2)c1 (stereo not shown),4.46
7,Cc1nc2cc(NC(=O)N3CCSCC3)ccc2n1C,1.78
8,O=C1NC(=O)N(Cc2ccco2)C(=O)/C1=C/c1c[nH]c2ccccc12,27.4
9,COc1cc(-c2nc3c4ccccc4c4ccccc4c3[nH]2)ccc1O,-3.28
10,Cc1cc(C)c2nc(N3CCC(C(=O)N4CCc5ccccc5C4)CC3)sc2c1,-1.58
11,Cc1cccc(CN2CCN(c3ccccn3)CC2)c1,-5.81
12,COc1ccc(C2=NN(c3nc(-c4cc(C)ccc4C)cs3)C(c3ccc(Cl)cc3Cl)C2)cc1F (stereo not shown),-2.5
13,CCCCOC(=O)c1ccc(N2CCOCC2)cc1,-0.828
14,Sc1nc(-c2ccccc2)cn1-c1ccccc1,37.1
15,COc1ccccc1OCC(=O)Nc1sc(C)c(C)c1C(N)=O,-3.41
16,COc1ccc(NS(=O)(=O)c2cccc(C(=O)NCc3ccccc3)c2)cc1,-0.0217
17,O=C(O)C1CCCCC1C(=O)N1CCCC1 (stereo not shown),-2.03
18,CCCCCOc1ccc2oc(=O)c3c(c2c1)CCCN3C(=O)CN1CCN(CC)CC1,10.4
19,Cc1ccc2c(c1)NC(c1cccs1)C1=C(O)CC(C)(C)CC1=N2 (stereo not shown),-4.32
20,CS(=O)(=O)N(CC(=O)N1CCCCCC1)c1cccc2ccccc12,2.79
21,COc1cc(CN2CC(C)OC(C)C2)cc(OC)c1O (stereo not shown),-2.54
22,COc1ccc(OC)c(C2C3=C(O)CC(C)(C)CC3=Nc3ccccc3N2C(=O)C(F)(F)F)c1 (stereo not shown),-1.06

row,SMILES,% Inhibition @ 10 uM [%]
1,Cc1c2c(=O)n(-c3nc4ccccc4s3)[nH]c2cc(=O)n1Cc1ccccc1,-1.98
2,Cc1ccc(-n2nc(C)c3c(C(=O)NCCc4c(C)noc4C)cc(C)nc32)cc1,0.44
3,CN(C)CCCN(CCCN(C)C)Cc1ccc(Cl)cc1Cl,-4.14
4,CCCNCC1=C(C(=O)OCC)C(c2ccccc2)NC(=O)N1 (stereo not shown),-6.91
5,Cn1c(=O)c2c(nc(SCC(=O)NC(C)(C)C)n2Cc2cccc(Cl)c2)n(C)c1=O,0.674
6,CC1CCCCC1NS(=O)(=O)c1ccc2nc(O)ccc2c1 (stereo not shown),-7.34
7,Cc1ccc(Cl)c2c1C(=O)c1ccccc1C2=O,3.06
8,COC(=O)C1=CN(C(C)C)C=C(C(=O)OC)C1c1ccc(OC)cc1OC,4.99
9,CC(C)(C)C1CCc2c(sc(NC(=O)C3CCCO3)c2C#N)C1 (stereo not shown),0.76
10,CC(C)c1cc2cc3ccc(=O)oc3cc2o1,0.467
11,O=C(Nc1ccc(F)cc1)c1cccc(S(=O)(=O)Nc2ccc(F)cc2)c1,-1.02
12,CCOC(=O)N1CCN(C(=O)CC2c3ccccc3Oc3ccccc32)CC1,0.343
13,CCn1cc(/C=C(\NC(=O)c2ccco2)C(=O)NCc2ccccc2)c2ccccc21,-0.235
14,O=C(/C=C/c1ccccc1)Nc1ccccc1Br,1.63
15,Clc1ccccc1N1CCN(CC2CC=CCC2)CC1 (stereo not shown),-0.603
16,OCCCCCNc1ncnc2sc3c(c12)CCCC3,1.57
17,O=S(=O)(c1ccc(F)cc1)N1CCN(c2cccc(Cl)c2)CC1,0.135
18,CCCN1Cc2cccc(C(=O)O)c2C1=O,-1.03
19,Cc1cc(Br)ccc1OCC(=O)Nc1ccc(S(=O)(=O)N2CCOCC2)cc1,-4.52
20,CCCOc1ccc(CNC(=O)CCCn2sc3ccccc3c2=O)cc1,8.44
